Assay results reported in the supplement of paper PMC11417369.
The other results are listed elsewhere or left out.

system: PfHDP1 homeodomain (GST-tagged); assay: gcPBM binding intensity (ln(normalized median fluorescence intensity)); higher = stronger DNA binding
Procedure, shortened: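 Using an Agilent 4 × 180k array, primer-extended double-stranded 36-bp intergenic genomic probes and negative controls were exposed for 1 h to GST-fused P. falciparum DNA-binding domains expressed in E. coli. Binding was carried out in 1× PBS with 1% milk, 0.2 mg/ml BSA, 0.5% salmon testes DNA and 0.03% Triton X-100, and protein was detected with Alexa488 anti-GST antibody and a 488 nm scan. Binding intensity is the highest Masliner-normalised natural-log median intensity across replicate spots of either probe orientation.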

Sequence	gcPBM binding intensity (ln)
ATACGATTGCAGTCAAAAAGGAAAATATAAAAAAAG [XGTACX_negctrl_site124]	6.74
TTATCATTTTAAATCACACACATATATAAATATGTA [CACACA_site7359]	6.45
AATATTTATAAATTTACACACACACCCGTGAACATA [CACACA_site1910]	6.88
TTATTAAATATAAATATGTATCTTTTATGTTATATT [CACACA_negctrl_site306]	6.13
AGACCTATGATATATACACACATATAAATAAATATA [CACACA_site6725]	6.6
AATGTTAAACTATGATGTACGGTTAAAAATATAATT [XGTACX_site893]	6.43
AAAAAAAAAAGACACACACACATAGACCTCCAATAG [CACACA_site7646]	6.57
TATTTTACGACATACCAAAAAAAAAAAAAAAAAATA [CACACA_negctrl_site1254]	5.85
TAAATCCGCAGGCACACACACATATTAATAAAAAAA [CACACA_site3991]	6.4
AATGATTTTGATTAACGTACGTACAAATATATATAT [XGTACX_site6604]	7.82
TATATATTATATAAATAAATAAATATATATATTTAT [TGCATGCA_negctrl_site270]	6.27
AAATTTAGTAAAAAATGTACGTAAAATGTAAAATAT [XGTACX_site1314]	6.84
AAGGTAAACGGACACACACACATACAAAAAAAAAAA [CACACA_site5961]	6.48
ATACTAACATTTTTTTGTACATATAACTATAAAATA [XGTACX_site1033]	6.7
TGATATTATAGATATACACACATGTATGTATTTATA [CACACA_site6758]	6.44
ATCGGTAATATTAACACACACATTTATTTATATTTA [CACACA_site6638]	6.8
TTTTATTATATGGAGGTGCATATATAATAATATAAT [GTGCAC_site9477]	9.07
ATGTATGTAATAAAAAGTACATATGTTCATAATAAA [XGTACX_site842]	6.53
TTCTTTTTAAATATACTAATTATGTATAAAACAGAA [GTGCAC_negctrl_site131]	6.24
TTTTATAAATATTTTTGTACACATTTAAATATTATT [XGTACX_site4973]	6.78
TTTTCATATATTTATTGTACATATTACATATATAAT [XGTACX_site2425]	6.84
AGAGAGAACGGTATAACATGCAATAAATTTCAGAAG [TGCATGCA_site423]	6.56

Sequence	gcPBM binding intensity (ln)
TTTTTTTAATAAAAGTGTACCAAATTATATACACAT [XGTACX_site6811]	6.48
ATTTATAAATCAAAGTGTACATATGTTTTATTTTTT [XGTACX_site804]	6.78
AAATGGAGTTAATATTGTACATATATATATATATAT [XGTACX_site5452]	9.44
TTTTTCTATTCCATTCAACACACAAAAATGTATGCT [CACACA_site8268]	6.5
AAAGTTTTAAGAAAATGTACATAAGTATACATATAT [XGTACX_site1293]	6.54
TTTGGGATAAAACAAAGTACTAACAAAATATATAAT [XGTACX_site8240]	6.85
ATTCTTGTTATATAAGGTACAGAACAAAATATAAAA [XGTACX_site5510]	6.59
TGCATTTTACTTGTTACACACATATAAAATTAACCA [CACACA_site7387]	6.57
TTTTTTTTTTTTTTAACACACATATAAATATTTTTC [CACACA_site6985]	6.52
TACAAGTATAAATAAGCACACATGTGTATATGTACA [CACACA_site7911]	7.13
TTAGAAGGGATTAAAGTGCAAAATAGGATTAGAGTA	9.49
TCTTATTTAATTAAACAAAAGAAAAAGAAAGAAAAG [CACACA_negctrl_site1569]	6.44
GACAAATTAATCGATTGTACACAATTTGTTTCGTTG [XGTACX_site35]	6.7
TTTTTTTTTTTTTGTACATGCAAATATTATGAACAC [TGCATGCA_site571]	6.67
AACACATACATATATGCACACATTTTATTCCATTAT [CACACA_site2834]	10.1
TTCACATATATATAACGTACATTATTATTATTCTGA [XGTACX_site6006]	6.62
TTTTTTTTTCCTTCTTGTACATATTATATATACATA [XGTACX_site5988]	6.8
TGGAACGTAATAAAATGTACATACGTTTTTCATATG [XGTACX_site6229]	6.27
AATGAAATAATACAATGTACGTTAAAAAAAAATAAA [XGTACX_site7928]	6.75
GTATTATTTTATGATGCATGTGTATTTCATATATGC [TGCATGCA_site660]	6.46
TAATATCAAACCTATAGTACATAAGGTATAAAAAAG [XGTACX_site3533]	6.6
AATATAACTTTTTGCACACTTAATTTTTTTTTTTAA [CACACA_site3365]	10.6

Sequence	gcPBM binding intensity (ln)
TAACAAAAAGCACTTAGTACATATATATATATATAT [XGTACX_site1099]	9.14
AGGTAATATACTAAATGTACAGAAAAACGAATTTTT [XGTACX_site2977]	6.48
TATATTTATTATAACACACACATATTTATATTATAG [CACACA_site6628]	6.43
TTTCTTTTTAAATATATACACACCGGGTGTACATAT [CACACA_site3345]	6.62
ATGTTATATTATAAAAGTACATTTTATTTTTATTTA [XGTACX_site4365]	6.53
TTAATTTATAAAAACACACACAGGTAAAAAGGTGCA [CACACA_site1177]	7.21
ATTTCCTTTTTCTGTTGTACTCATAAAATAATATGT [XGTACX_site7234]	7.39
GTTAAGTGTATATATACACACATATGTAATACATGA [CACACA_site3048]	7.22
AAAAAAAGTGACTCCTTACACACTTTACATAATTTA [CACACA_site820]	6.24
TAAAAATATATGTATACACACATATATATATATATA [CACACA_site3951]	9.29
AATATTGAAATAACGCGTACAAAAAAAAGTTATATT [XGTACX_site6559]	6.8
TAATTAAAATTATATATTAGAAAAAACATATAAAAC [CACACA_negctrl_site190]	6.42
ATATGTAGAATAAAAAAAAAAAAAAAAAAAAAAAAT [CACACA_negctrl_site621]	6.09
TACAGACAGAAACACACACACACGCATAAAAAAAAA [CACACA_site1514]	6.81
ATTTATTTATTTATATGTACATATATATATATATAT [XGTACX_site339]	9.31
TAATAATAACCGTTATGTACACAATTTTGTGAACAT [XGTACX_site8053]	6.35
GATGGAATCTAATTTACATGCAGTGATATAATAAAT [TGCATGCA_site1031]	6.47
ACTTCCTATATTTATGCATGCATTTTATTAAAAAAT [TGCATGCA_site747]	7.8
ATATATCATGAACCTTGTACGTATATATATATATAT [XGTACX_site239]	9.25
TATACAATATTTATAACACACATATTTATATAAACT [CACACA_site6932]	6.49
ACTAAACAATATGTATGTACATATTTTACATATAAT [XGTACX_site3318]	6.62
AGAACATTTTCTCAGTGTACTTATATATTTGACATA [XGTACX_site6541]	6.44

Sequence	gcPBM binding intensity (ln)
TTATTAGAAAAATGCACACCAAAAAAAAAAAAAAAA [CACACA_site2522]	8.93
ATACATATACACATATGTACATATGAAAAGAAAAAT [XGTACX_site6445]	7.15
TACATATATATAAATACACACACACCCACCTTATAA [CACACA_site9346]	6.99
TTTTTATTTTATAATATATTCCTTTTCCTTTCTTTC [CACACA_negctrl_site245]	6.29
TATATATATTGTGTATGTACATATATATAAATATTG [XGTACX_site433]	6.68
TTCATTTGAAAACTGTGTACTTAAAAATATACATAT [XGTACX_site176]	6.11
AATATAATATAATGCACACATAAACAAAAAAAAAAT [CACACA_site1304]	10.5
ATATATTTAAATAAATGTACAAATCATAAATTCAAG [XGTACX_site1417]	6.07
AAGATAACAAGTAATCAATCTAATTATTAATTATAT [CACACA_negctrl_site1713]	5.92
AAAAATATGTGATAATGTACTTTTCATTTTTATTTT [XGTACX_site8544]	6.09
AAAAGAAAAATGTCATATGATATCATATATTTTATA [GTGCAC_negctrl_site185]	6.26
ATATACATATATATATGTACTGAAAAGAAAAGAATT [XGTACX_site150]	6.69
CATAAATACATACATACACACATATTTATATTTATA [CACACA_site7071]	6.76
ATAATTATATATATATGTACATATTATATATATATA [XGTACX_site4526]	8.45
TGTTTTTAAATTTAAATCAAAAAATAAAATAAAATA [GTGCAC_negctrl_site355]	6.32
TACTTTTATATAGAAAGTACATACAATTCATAGAAT [XGTACX_site2182]	6.18
TTTTTTTTTTTTTTGTGTACATATAATGCACATTAT [XGTACX_site6505]	10.1
TATAAAAAGCATAACACACACATGTCAATATAAATA [CACACA_site6648]	6.7
TATTGAAACCCACACGAACACACGTATTTCATAAAC [CACACA_site251]	6.51
ATGGACATTTTATAAATCACAATGGATATTTTATAA [CACACA_negctrl_site1830]	6.11
TACATCATCTATAAGGTGCATTTTAGTTCTATTAAA	8.99
TATATATTTTATTATTGTACGAATTATTTATTTTAC [XGTACX_site8105]	6.25
